# Experimental data: PubChem BioAssay AID588501 (NMMLSC, 2011)
# Hit rate of the full screen: of about 360,000 compounds, about 420 (0.12%) were called active. The inconclusive results got no clear call from the source; some entries with a clear call stand among them for comparison. Rule as the data show it: active = inhibition above about 30%; inconclusive = no clear call, values can overlap the other calls; inactive = below that.
# Target: Lethal factor (Bacillus anthracis) (UniProt P15917)
# Assay: anthrax lethal factor cleavage blockers – biochemical, multiplex microsphere, MLPCN library, primary screen (AID 588501); also: plate controls were buffer without enzyme for full effect and enzyme alone for no effect
# Details: multiplex microsphere protease cleavage assay, LF; at 10 µM; stronger effect = higher value
# Sequence of UniProt P15917 (P15917 whole entry, looked up): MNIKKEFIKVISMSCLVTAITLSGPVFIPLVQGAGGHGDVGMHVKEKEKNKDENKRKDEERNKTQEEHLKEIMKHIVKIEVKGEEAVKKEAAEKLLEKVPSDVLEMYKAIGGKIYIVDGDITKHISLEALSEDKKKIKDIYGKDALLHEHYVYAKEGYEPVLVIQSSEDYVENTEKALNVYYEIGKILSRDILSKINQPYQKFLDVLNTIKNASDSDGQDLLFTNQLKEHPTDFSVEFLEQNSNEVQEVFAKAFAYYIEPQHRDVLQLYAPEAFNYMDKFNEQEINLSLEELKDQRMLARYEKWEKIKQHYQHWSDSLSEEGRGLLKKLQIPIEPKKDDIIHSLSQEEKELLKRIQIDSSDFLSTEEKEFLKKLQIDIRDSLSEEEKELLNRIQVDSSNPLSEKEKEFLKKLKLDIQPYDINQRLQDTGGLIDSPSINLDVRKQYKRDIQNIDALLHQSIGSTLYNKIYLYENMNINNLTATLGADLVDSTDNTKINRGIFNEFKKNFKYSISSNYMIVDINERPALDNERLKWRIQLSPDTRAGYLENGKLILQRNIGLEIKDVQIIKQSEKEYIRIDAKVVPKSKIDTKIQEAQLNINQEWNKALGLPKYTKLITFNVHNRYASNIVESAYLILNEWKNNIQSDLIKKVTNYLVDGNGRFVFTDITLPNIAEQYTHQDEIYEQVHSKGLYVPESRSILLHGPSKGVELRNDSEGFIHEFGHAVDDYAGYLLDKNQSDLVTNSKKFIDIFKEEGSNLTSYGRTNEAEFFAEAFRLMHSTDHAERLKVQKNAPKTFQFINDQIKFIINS
row,SMILES,inhibition
1,Cc1ccc(S(=O)c2ccc(C)cc2)cc1,inactive: -0.1%
2,CC1(C2CC2)NC(=O)N(CC(=O)Nc2ccc(F)cc2F)C1=O (stereo not given),inactive: -6.8%
3,O=C(CSc1nnc(Cc2cc(=O)[nH]c(=O)[nH]2)n1-c1ccc(Cl)cc1)NCC1CCCO1 (stereo not given),inconclusive: -6.6%
4,CC(=NNC(=S)N1CCN(C2CCCCCC2)CC1)c1ccccn1,active: 92%
5,CC(C)S(=O)(=O)c1csc(NC(=O)Nc2ccc(Cl)cc2)c1,inconclusive: -4.1%
6,O=C(COC(=O)c1nc(Cl)ccc1Cl)c1ccccc1Cl,inconclusive: -5.6%
7,CN(CC(=O)Nc1ccccc1Cl)C(=O)CSC(=S)N1CCCC1,inconclusive: -3.9%
8,Cc1ccc(S(=O)(=O)N(C)C)cc1NC(=O)COC(=O)CNC(=O)C12CC3CC(CC(C3)C1)C2,inconclusive: 4.5%
9,CCCCCCC(=O)N1C/C=C\C(c2ccc(OC)cc2)N(Cc2ccc(F)cc2)C(=O)C1 (stereo not given),inactive: -3.7%
10,O=C(NCc1cccs1)C1CCCCC1,inconclusive: -11.3%
11,Cc1ccc(C(=O)OCC(=O)Nc2sc3c(c2C#N)CCCCC3)cc1NC(=O)c1ccco1,inconclusive: -3.2%
12,CN(C)C(=O)/C(=C\c1ccc(-c2cccc([N+](=O)[O-])c2)o1)NC(=O)c1ccccc1,inactive: -2.8%
13,CC1(C)CN=C(NCc2ccccc2Cl)S1,inconclusive: -16.6%
14,COc1ccccc1NC(=O)C(=O)Nc1ccc2c(c1)N(C(=O)C1CC1)CCC2,inconclusive: -2.9%
15,Cc1ccc2nc(SCC(=O)NCc3ccccc3Cl)nc(=O)n2c1,inactive: 1.9%
16,CCN1C(=O)/C(=C/C=C2/Sc3ccc4ccccc4c3N2CCO)SC1=S,active: 51.9%
17,O=[N+]([O-])c1cc(Cl)cc(C2=NCCN2)c1,inconclusive: -26.5%
18,CC1(C2CC2)NC(=O)N(CC(=O)Nc2ccc(OC(F)F)cc2)C1=O (stereo not given),inactive: -2.1%
19,Cc1ccc(S(=O)(=O)n2nccc2-c2c(-c3ccccc3)noc2C)cc1,inconclusive: -30.8%
20,COc1ccc(NCc2nnc(SCc3ccc(Cl)cc3)n2-c2ccccc2)cc1,inactive: -0.6%
21,COCCCN(C(=O)c1cc2c(s1)CCCCC2)c1c(N)n(Cc2ccccc2)c(=O)[nH]c1=O,inactive: -1.8%
22,COc1ccc(C(=O)NCCS(=O)(=O)NCc2ccc3c(c2)OCO3)cc1,inconclusive: -3.8%
23,CCn1nc(C(=O)OCC(=O)c2c[nH]c3ccccc23)c2ccccc2c1=O,active: 38%
24,O=C(CCN1CCC(c2ccc(Cl)s2)=N1)c1ccc(Cl)s1,inconclusive: -8.1%
25,CCC1(c2ccccc2)NC(=O)N(CC(=O)Nc2ccccc2C(=O)NC2CCCC2)C1=O (stereo not given),inconclusive: -4.5%
26,CCOc1ccc(NC(=O)COc2ccc3c(c2)CCC3)cc1OC,inconclusive: -10.2%
27,CCCCOc1ccc(/C=C(\C#N)C(=O)NC2CC2)cc1,inconclusive: 0.2%
28,O=C(/C=C/c1cccc(Cl)c1)NNC(=O)c1ccncc1,inconclusive: 2.4%

row,SMILES,inhibition
1,O=[N+]([O-])c1cccnc1SCc1c(F)cccc1Cl,inconclusive: -13.2%
2,CC(C)CN(C(=O)COC(=O)CSc1ccccc1F)c1c(N)n(Cc2ccccc2)c(=O)[nH]c1=O,inconclusive: 0.2%
3,COc1ccc(CN2CCC(n3nccc3NC(=O)CCOc3ccccc3)CC2)cc1C,inactive: -0.2%
4,Cc1ccccc1OCC(=O)Nc1c2c(nn1C(C)(C)C)CS(=O)(=O)C2,inactive: 0.8%
5,CCOC(=O)COn1c(=O)c(-c2ccccc2)[n+]([O-])c2ccccc21,active: 29.7%
6,O=C(CCN1C(=O)C2C3CCC(C3)C2C1=O)OCC(=O)c1ccc(Cl)cc1 (stereo not given),inconclusive: 2.2%
7,CN1N=C2c3ccccc3CCCC2C1c1ccc(F)cc1 (stereo not given),inactive: 6%
8,Cn1c(SCC(=O)NC2CCCC2)nnc1C(F)(F)F,inconclusive: 0.4%
9,COc1cc2c(cc1OC)C(C)N(S(=O)(=O)c1cccs1)CC2 (stereo not given),active: 32.5%
10,CC(C)(C)C(=O)c1sc2nc(-c3cccs3)cc(C(F)(F)F)c2c1N,active: 34%
11,CCOC(=O)C1CCN(C(=O)C(=O)c2cn(CC(=O)N3CCCCCC3)c3ccccc23)CC1,active: 30.7%
12,COc1c2c(c(OC)c3c1c(=O)c1ccccc1n3C)OCO2,inactive: 2%
13,CN(C(=O)c1cc2n(n1)C(C(F)(F)F)CC(c1ccco1)N2)c1ccc(OC(F)(F)F)cc1 (stereo not given),inconclusive: -16.5%
14,CCC(C(=O)N1CCN(c2ccccc2OC)CC1)c1ccccc1 (stereo not given),inactive: -0.7%
15,Cc1ccc2c3c(cccc13)-c1ccccc1C2=O,active: 43.7%
16,COc1ccc(N2CC(C(=O)N[C@@H](CC(C)C)C(=O)NC3CCCCC3)CC2=O)cc1 (stereo not given in full),inactive: -1.6%
17,CC(=O)Nc1ccc(S(=O)(=O)NCCC(=O)N2CCN(C(c3ccccc3)c3ccccc3)CC2)cc1,inconclusive: -0.3%
18,COc1ccccc1NC(=O)N(C)C[C@H]1OCc2cnnn2CCCC(=O)N([C@@H](C)CO)C[C@H]1C,inactive: -4.2%
19,COc1ccc(Cl)cc1NC(=O)CN(C)CC(=O)Nc1ccc(Br)cc1,inactive: -0.6%
20,CCOC1=C2CN(S(=O)(=O)c3ccc(C)cc3)[C@H](c3cccc(Cl)c3)C[C@@H]2N(S(=O)(=O)c2ccccc2[N+](=O)[O-])[C@H](c2ccccc2)C1,inactive: -5%
21,NC(=S)Nc1ccc(Cl)c(Cl)c1,active: 52.2%
22,N=c1c2c3c(sc2nc2n1CCC2)CCCC3,inconclusive: 12.5%
23,COc1ccc(NC(=O)CCCSc2nc(-c3ccco3)cc(C(F)(F)F)n2)cc1OC,inactive: 7%
24,COc1ccccc1/C=C/C=N/NC(=O)c1cccs1,inconclusive: -42.4%
25,O=C(Nc1ccc(S(=O)(=O)NCCc2ccccc2)cc1)c1ccc(Br)o1,inconclusive: -15.1%
26,COC(=O)c1ccc(C(=O)OC)c(NC(=O)CN(C)Cc2ccc(Cl)c(Cl)c2)c1,active: 36.6%
27,COc1ccc([C@H]2C[C@@H](n3cc(-c4ccc(F)cc4)nn3)[C@H](O)CN2C(=O)C2CCCCC2)cc1,inactive: -1.7%
